Laboratory results: publication PMC12742838 (2025)

Target: T1, Varicella-zoster virus glycoprotein E (gE), recombinant protein, tag not told for these experiments (Varicella-zoster virus, UniProt P09259 31-537)
T1 chain: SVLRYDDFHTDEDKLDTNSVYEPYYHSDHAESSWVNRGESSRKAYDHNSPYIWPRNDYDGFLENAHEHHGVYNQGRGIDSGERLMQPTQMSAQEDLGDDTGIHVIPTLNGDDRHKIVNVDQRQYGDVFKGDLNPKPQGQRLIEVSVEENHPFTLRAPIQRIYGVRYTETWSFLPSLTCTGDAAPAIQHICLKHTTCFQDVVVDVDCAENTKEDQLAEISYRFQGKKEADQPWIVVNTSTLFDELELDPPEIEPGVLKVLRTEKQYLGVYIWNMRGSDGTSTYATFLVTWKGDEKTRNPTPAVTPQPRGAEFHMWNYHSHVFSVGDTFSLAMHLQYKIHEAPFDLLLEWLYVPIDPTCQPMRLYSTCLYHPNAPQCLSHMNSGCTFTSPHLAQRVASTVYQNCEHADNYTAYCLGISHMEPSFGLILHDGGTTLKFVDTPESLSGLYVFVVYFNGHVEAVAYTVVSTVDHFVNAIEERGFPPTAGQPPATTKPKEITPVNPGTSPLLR
Test: SPR

B1: recombinant soluble insulin-degrading enzyme (rIDE, residues 42-1,019) (enzyme)
chain: not shown
B1 showed a Kd of 50.9 nM.
